Screen size: about 45,000 compounds; about 65 (0.1%) were called active. Calls come from the whole dose curve; as a rule, active = well fitted activation curve with a large enough effect; inconclusive = small, poorly fitted or top-dose-only effect; inactive = no such curve, though single readings can be large or run the other way. This is one part of the list.

UniProt P54803, sequence (P54803 whole entry, looked up): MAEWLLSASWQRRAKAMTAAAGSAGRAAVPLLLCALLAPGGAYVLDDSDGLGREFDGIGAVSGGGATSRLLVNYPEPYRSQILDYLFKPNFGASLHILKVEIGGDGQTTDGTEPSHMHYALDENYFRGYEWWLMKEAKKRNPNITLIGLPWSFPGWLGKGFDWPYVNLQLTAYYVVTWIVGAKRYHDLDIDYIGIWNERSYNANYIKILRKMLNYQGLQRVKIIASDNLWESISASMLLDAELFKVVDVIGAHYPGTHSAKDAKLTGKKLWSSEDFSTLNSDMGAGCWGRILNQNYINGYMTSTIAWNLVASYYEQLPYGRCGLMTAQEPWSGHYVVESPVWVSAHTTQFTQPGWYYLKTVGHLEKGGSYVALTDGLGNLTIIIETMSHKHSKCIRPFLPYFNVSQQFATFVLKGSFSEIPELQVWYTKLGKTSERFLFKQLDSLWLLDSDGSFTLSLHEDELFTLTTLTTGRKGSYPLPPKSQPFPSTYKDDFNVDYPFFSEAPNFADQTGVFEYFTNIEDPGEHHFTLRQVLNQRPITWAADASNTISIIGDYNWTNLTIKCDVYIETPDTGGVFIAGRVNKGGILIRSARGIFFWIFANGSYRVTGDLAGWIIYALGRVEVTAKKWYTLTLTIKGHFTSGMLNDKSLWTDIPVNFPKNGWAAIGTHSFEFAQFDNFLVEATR

The target of this experiment is Galactocerebrosidase (Homo sapiens) (UniProt P54803). The experiment is described as follows: A Novel Cell-Based Assay to Identify Small Molecules for B -Galactocerebrosidase. Note: 0% is about no effect; nearly all actives have a fitted effect of over 65% in size. The note with it: 145M-Twi-hGALC-G270D cells (Twitcher mouse brain line with human GALC G270D), HMU-beta-Gal fluorescence, 48 h; series mostly up to 57.5 µM; activation: at the top concentration. Put shortly:
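Mutant human GALC (G270D), stably expressed in a Twitcher mouse brain cell line lacking endogenous GALC, is measured in live-treated cells via 6-hexadecanoylamino-4-methylumbelliferyl-β-galactoside hydrolysis (0.1 mM final, pH 5.2) with fluorescent detection.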
Regarding `Cc1ccccc1Nc1cc(C(=O)NC2CCC(C)CC2)c2ccccc2n1` (centres undefined), the “activation” value was inactive: -15.1%.
Turning to `Cc1cccc(C)c1NC(=O)N1CCC(C(N)=O)(N2CCCCC2)CC1`, the “activation” value was inactive: -6.21%.
To `O=C(Nc1ccc(F)cc1F)c1cc2ccc3cccnc3c2[nH]1` belongs inactive: -14.1%; to `COc1ccc(-c2nc(Cn3c(SCc4cccc(F)c4)nc4cccnc43)c(C)o2)cc1`, inactive: -3.88%.
For `Cn1cc(S(=O)(=O)N2CCCCCC2)cc1C(=O)Nc1ccccc1F`, the “activation” value is inactive: -3.98%.
Under `COc1ccc2oc(-c3ccc(C)c(NC(=O)c4sc5ccccc5c4Cl)c3)nc2c1` stands inactive: -21.3%; under `COc1cccc(C(=O)NCC(c2ccc(N(C)C)cc2)N2CCc3ccccc32)c1OC` (centres undefined), inactive: -4.24%; under `COc1cccc(-n2c(-c3ccco3)nc3c(cnn3-c3ccccc3C)c2=O)c1`, inactive: -7.64%.
Under `CC(C)c1ccc(C(=O)Nc2ccc(-c3nc4ccccc4s3)c(Cl)c2)cc1` stands inactive: -10.8%; under `CCCCN(CCCC)S(=O)(=O)c1ccc(C(=O)Nc2sc3c(c2C(N)=O)CCN(CC)C3)cc1`, inactive: -17.2%; under `CCc1nc2ccccc2n1CCCCOc1ccc(Cl)cc1`, inactive: 2.78%.
Under `COc1cc(NC(=O)Cn2nc(Cc3cccnc3)c3ccccc3c2=O)cc(OC)c1OC` stands inactive: -11.2%; under `Cc1cccc(OCC(=O)Nc2c(C(=O)N3CCN(c4ccccc4)CC3)oc3ccccc23)c1`, inactive: -17.1%; under `COc1ccc(N2CCN(c3oc(-c4ccccc4C)nc3S(=O)(=O)c3ccccc3)CC2)cc1`, inactive: -15.6%.
In the case of `CC1=C(C(=O)Nc2cccc(Cl)c2)C2(CCCCCC2)OC1=O`, the “activation” value was inactive: 0.249%.
In the case of `Cc1nc2c([nH]1)c(=O)n(C)c(=O)n2Cc1ccco1`, the “activation” value is inactive: -7.17%.
As for `COc1ccccc1NC(=O)Cn1c(=O)n(CCc2ccccc2)c(=O)c2sc3ccccc3c21`, the “activation” value was inactive: 2.11%.
Under `COc1cc(NC(=O)Cn2nc(C(F)(F)F)c3c2CCCC3)cc(OC)c1OC` stands inactive: -7.62%; under `O=C(Nc1ccc(-c2cn3cccnc3n2)cc1)c1ccccc1F`, inactive: -3.51%; under `Cc1ccc(OCc2ccc(-c3nc(C#N)c(N4CCN(c5cccc(Cl)c5)CC4)o3)o2)cc1`, inactive: -11.6%.
Regarding `Cc1cccc(CSc2nc3ccncc3n2Cc2ccc(C(=O)O)cc2)c1`, the “activation” value is inactive: -3.68%.
Take `CCOc1ccccc1CNC(=O)CCCn1nc(C)c2sc3ccccc3c2c1=O`: the “activation” value is inactive: -12.7%.
To `CCN1CCN(c2cc(C)c3cc(NC(=O)c4cc(Br)ccc4Cl)ccc3n2)CC1` belongs inactive: -22.7%; to `CCCC12CN3CC(C)(CN(C1)C3c1cn(CC)c3ccccc13)C2=O` (centres undefined), inactive: -27.7%; to `CCC1CN(C(=O)N2CCC(C(=O)NCCCc3ccccc3)CC2)c2ccccc2O1` (centres undefined), inactive: -6.75%.
To `CN(C)c1ccc(CNC(=O)Cn2c(=O)oc3cc(S(=O)(=O)NCc4ccccc4)ccc32)cc1` belongs inactive: 0.32%; to `COc1ccc(CNC(=O)c2ccc(CS(=O)(=O)c3ccc(OC)cc3)o2)cc1`, inactive: -13.2%; to `Cc1nn(CCC(=O)N2CCN(c3ccccc3F)CC2)c(C)c1S(=O)(=O)N1CCCC1`, inactive: -2.56%.
For `COc1ccc(C(=O)Nc2cc3cc(Cl)ccc3oc2=O)cc1OC`, the “activation” value was inactive: -0.354%.
To `CCOC(=O)c1c(C)[nH]c(CCC(=O)Nc2ccccc2OCC)c1C` belongs inactive: -18.7%; to `COc1ccc2oc(=O)cc(CN3CCN(c4ccccc4OC)CC3)c2c1`, inactive: -25.2%; to `COCCCNC(=O)CSc1nc(-c2ccc(OC)cc2)[nH]c1-c1ccc(OC)cc1`, inactive: -9.4%.
Take `CC(=O)N1CCCc2cc(S(=O)(=O)N3CCC(C(=O)NCc4ccccc4Cl)CC3)ccc21`: the “activation” value was inactive: -16.7%.
To `CCC(=O)N1c2ccccc2CC1C(=O)NCCN1CCN(c2cccc(Cl)c2)CC1` (centres undefined) belongs inactive: -25.5%; to `O=C(NCc1ccccc1Cl)c1ccc2nc(Cc3ccccc3)oc2c1`, inactive: -7.14%; to `Cc1ccc(-c2nc(C)c(CCNC(=O)C(=O)Nc3ccc(C)c(Cl)c3)s2)cc1`, inactive: 2.17%.
Consider `CCOC(=O)c1cc(S(=O)(=O)NCc2ccc(F)cc2)[nH]n1`, for which the “activation” value was inactive: -17%.
Under `CC(=O)Nc1ccccc1OCc1cc(=O)n2c(C)csc2n1` stands inactive: -18.1%; under `CCC1(C)CC(=O)NC1=O` (centres undefined), inactive: -14.9%; under `CC(=O)N1c2ccc(S(=O)(=O)NCc3ccc(Cl)cc3)cc2CC1C` (centres undefined), inactive: 5.42%.
Consider `COc1cccc(-c2nn(C)c3sc(C(=O)NCc4ccc(C)cc4)cc23)c1`, for which the “activation” value was inactive: -14.8%.
Under `CCN(CC)C(=O)c1sc2c(c1C)c(=O)n(-c1ccc(OC)cc1OC)c(=O)n2Cc1cc(C)ccc1C` stands inactive: 7.69%; under `CCc1ccc(CNC(=O)Cn2nc(C)c3c(C)n(-c4ccc(C)cc4)nc3c2=O)cc1`, inactive: -7.79%.
To `CCC(CC)C(=O)Nc1cccc(-c2nc3ncccn3c2C)c1` belongs inactive: -19.6%.
To `CCN(CCCNC(=O)CSc1cc(=O)n(C)c2cc(Cl)ccc12)c1ccccc1` belongs inactive: -33.9%; to `COc1ccc(CN(C)c2ccc(-c3nc(C)no3)cc2[N+](=O)[O-])cc1`, inactive: -6.22%; to `Cc1ccc(NC(=O)CSc2ncc3c(n2)-c2ccccc2N(C)S3(=O)=O)c(Cl)c1`, inactive: -6.71%.
Consider `COc1ccc2nc(SCc3ncc(C)c(OC)c3C)[nH]c2c1`, for which the “activation” value was inactive: -13.8%.
To `CN1CCN(CCNC(=O)c2cnn(-c3cccc(Cl)c3)c2C2CCN(C(=O)OC(C)(C)C)CC2)CC1` belongs inactive: 20.5%.

For the origin of these results see PubChem BioAssay AID1159614 (National Center for Advancing Translational Sciences (NCATS), 2016).
